Results on 44 compounds are retold here after ChEMBL document CHEMBL4888484, “Replenishing the malaria drug discovery pipeline: Screening and hit evaluation of the MMV Hit Generation Library 1 (HGL1) against asexual blood stage Plasmodium falciparum ,using a nano luciferase reporter read-out” (2022).

The campaign covered roughly 150,000 compounds. About 540 (0.36%) showed an effect of 50% or more. The list shows a part of the results.

In the assay the test system is Plasmodium falciparum. The assay can be described thus: Primary screen in NF54 nanoGlo assay, in single point, at 2uM, 72h; a lower Z score goes with more inhibition. The assay is classed as functional, Erythrocyte. Conditions: timepoint 72 hour.

As a reminder, the % Inhibition is the drop in the measured response relative to a control, in per cent. Consider `COc1cncc(O[C@H]2CCCN(C(=O)Cc3cccs3)C2)n1`, for which the “% Inhibition” value worked out at 18% and the Z score is given as -3.

`C[C@H](NC(=O)c1ccoc1C1CC1)c1nccs1`: the “% Inhibition” value was -11% and the Z score was 1.47.

Take `O=C(NCc1cccnc1-c1cccnc1)c1cccc(Cl)c1`: the “% Inhibition” value is -1% and the Z score was found to be 0.19.

As to `CCc1nnc2ccc(N[C@H]3CC[C@@H](C(=O)N4CCCC4)C3)nn12`, the “% Inhibition” value is recorded as -5% and the Z score was determined as 0.57.

Regarding `CCOC[C@H]1CCCN(C(=O)c2cnn3cccc(OC)c23)C1`, the “% Inhibition” value is on record as -7% and the Z score is on record as 0.69.

As for `Cc1ncc(C(C)C)c(NCC2(CO)CCCC2)n1`, the “% Inhibition” value was -6% and the Z score was found to be 1.12.

Consider `O=C(Nc1cccc(-c2ccccc2)c1)N1CCC(C(=O)N2CCCC2)CC1`, for which the “% Inhibition” value is 3% and the Z score was -0.26.

Regarding `COc1nn(C)cc1C(=O)Nc1nnc(-c2csc(C)n2)o1`, the “% Inhibition” value is given as -21% and the Z score was determined as 3.09.

For the compound `OC(COc1ccccc1)CN1CCN(CC2CCCCO2)CC1` (stereo not drawn), the “% Inhibition” value is given as -2% and the Z score came out at 0.18.

As to `CCn1ncc(CN(C)Cc2scnc2C)c1C`, the “% Inhibition” value is given as -8% and the Z score was found to be 1.06.

As to `CN1CC(NC(=O)C2CCS(=O)(=O)C2)Cc2ccccc21` (stereo not drawn), the “% Inhibition” value is -14% and the Z score amounted to 1.34.

As to `CNC(=O)[C@@H]1C[C@H](Oc2ccccc2)CN1C1CCN(Cc2cn(C)c3ccccc23)CC1`, the “% Inhibition” value is given as -10% and the Z score is given as 1.15.

Regarding `CCOC(=O)c1nc(NC(=O)NCCF)sc1C(F)(F)F`, the “% Inhibition” value is -4% and the Z score stood at 0.46.

For `CC(C)(C)CC(=O)N1CCC[C@H](OCc2ccccc2F)C1`, the “% Inhibition” value is listed as -8% and the Z score turned out to be 0.82.

For `CN(C)c1ccc(CNc2sc3c(c2C#N)CCCCCCCCCC3)cc1`, the “% Inhibition” value came out at 9% and the Z score was -1.14.

Regarding `Cc1n[nH]c(C)c1CN(C)c1ccccc1`, the “% Inhibition” value is recorded as -4% and the Z score is recorded as 0.39.

In the case of `C#CCCCCC(=O)NC1CCCCC1`, the “% Inhibition” value is listed as -9% and the Z score amounted to 1.1.

Consider `COCc1nc(-c2nc3c([nH]2)C[C@H](c2cccc(OC)c2)CNC3=O)no1`, for which the “% Inhibition” value was -9% and the Z score is listed as 1.16.

On to `CC(C)(C#N)CCCNc1ccccc1C(=O)NCC(F)(F)F`, for which the “% Inhibition” value is recorded as -8% and the Z score is reported as 1.4.

For `CC(=O)N(CCNC(=O)c1noc(C)c1Cn1cccn1)C1CCOCC1`, the “% Inhibition” value is on record as -6% and the Z score stood at 1.05.

As to `O=C(C1CCN(c2ccc3c(Cl)ccc(Cl)c3n2)CC1)N1CCOCC1`, the “% Inhibition” value was -13% and the Z score is given as 1.33.

Take `CCN(Cc1ccccc1)C1=NS(=O)(=O)C(c2ccc(F)cc2)=C1C`: the “% Inhibition” value was -6% and the Z score is listed as 0.8.

With `CCC(CC)(CCO)CNC(=O)Nc1ccccc1`, the “% Inhibition” value is reported as -3% and the Z score worked out at 0.35.

On to `Cc1ccncc1NC(=O)CCCNC(=O)OC(C)(C)C`, for which the “% Inhibition” value is given as -3% and the Z score is reported as 0.24.

Consider `CCCc1cc(C(=O)N(CC)[C@@H](C)Cc2ccsc2)[nH]n1`, for which the “% Inhibition” value was determined as 12% and the Z score is on record as -1.39.

Regarding `COc1ccc(-c2cc(-c3cn(CCO)nc3C)c(C#N)c(N)n2)cc1F`, the “% Inhibition” value is -11% and the Z score amounted to 1.63.

Regarding `CCCc1cnc(C)nc1N1CCC(N2CCN(c3ccccn3)CC2)CC1`, the “% Inhibition” value came to 6% and the Z score is on record as -0.85.

As for `C[C@H]1CN(c2ccc(C#N)cn2)C[C@]1(O)C1CC1`, the “% Inhibition” value was 3% and the Z score is recorded as -0.65.

In the case of `Cc1ccsc1[C@@H]1CCCCCN1S(=O)(=O)Cc1ccccc1`, the “% Inhibition” value is 2% and the Z score is -0.45.

In the case of `O=C1C[C@H](CNS(=O)(=O)CC2CCCC2)CN1C1CC1`, the “% Inhibition” value is -1% and the Z score was found to be 0.17.

Consider `Cc1nc2cc(CCc3c(C)n[nH]c3C)ccc2o1`, for which the “% Inhibition” value is on record as 0% and the Z score is 0.03.

With `CC(=O)N1CCc2cc(S(=O)(=O)N3CCC(CC(=O)Nc4cccc(C)c4C)CC3)ccc21`, the “% Inhibition” value is recorded as -6% and the Z score is listed as 0.57.

Consider `CC(C)(C)OC(=O)N1CC2CCC1C(C(=O)O)C2` (stereo not drawn), for which the “% Inhibition” value is given as 0% and the Z score was -0.04.

Regarding `Cn1ccc(C(=O)N2CCNC(=O)C[C@H]2c2ccccc2)cc1=O`, the “% Inhibition” value is reported as -7% and the Z score is listed as 0.92.

With `CCc1cc(C(=O)N2CCN(CC(C)C)CC2)nc2cc(-c3ccccn3)nn12`, the “% Inhibition” value was -10% and the Z score is on record as 1.35.

`O=C(Cc1ccccc1F)Nc1cc(-c2ccsc2)no1`: the “% Inhibition” value is given as -4% and the Z score is listed as 0.37.

As for `Cn1nc(-c2nnc3n2CC(C)(C)CC3)c2ccccc2c1=O`, the “% Inhibition” value is recorded as -4% and the Z score turned out to be 0.53.

For the compound `CC(NC(=O)C(C)S(=O)(=O)C(C)C)c1ccc(OC(F)F)cc1` (stereo not drawn), the “% Inhibition” value is reported as -8% and the Z score is 1.27.

Regarding `Cn1nccc1NC(=O)N1CCCCCCC1`, the “% Inhibition” value was -6% and the Z score was determined as 0.71.

For the compound `CCn1cc(CC(=O)Nc2c[nH]nn2)cn1`, the “% Inhibition” value is -5% and the Z score is recorded as 0.59.

Consider `O=C(O)[C@@H]1CCCN1C(=O)C1Cc2ccccc2C1`, for which the “% Inhibition” value was -5% and the Z score was found to be 0.81.

Turning to `CCOC(=O)c1noc2nc(C)nc(NCc3ccc(F)cc3)c12`, the “% Inhibition” value was -13% and the Z score is 2.52.

`C/C=C(\C)C(=O)N1CCN(c2nc3nccc(-c4cc(Cl)ccc4Cl)n3n2)CC1`: the “% Inhibition” value is reported as -14% and the Z score turned out to be 2.25.

For `Cc1c(C(=O)N2CCC3(CC2)CNC(=O)C3)n(C)c2c(C)cccc12`, the “% Inhibition” value is given as -1% and the Z score was 0.16.
